In PubChem BioAssay AID1508623 (National Center for Advancing Translational Sciences (NCATS), 2021):
The campaign covered roughly 48,000 compounds. About 450 (0.94%) were called active. Inconclusive results (about 19%) are left out. The call rests on the fitted dose curve; in most records, active means well fitted inhibition curve with a large enough effect; inconclusive means small, poorly fitted or top-dose-only effect; inactive means no such curve, though single readings can be large or run the other way. The list shows a part of the results.

Experiment: Primary qHTS for Identification of Small Molecule Inhibitors of Huntingtin Promoter Activity; further: nearly all actives have a fitted effect of over 50% in size
Conditions: HEK293 HTT promoter firefly luciferase reporter (activity 0% = vehicle and -100% = no light), 24 h; series mostly up to 57.5 µM; activity change, negative = inhibition: at the top concentration
Summary of the method: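 Luminescence was read after Dual-Glo reagent and a 10 min room-temperature incubation. Values were normalized to vehicle (0% activity) and zero RLU (-100% activity). Reporter HEK293 cells had been exposed to compounds (up to 57.5 uM final) for 24 h.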

Activity change, negative = inhibition, inactive:
CCOc1ccc(OCC)c(NC(=O)c2cc(-c3cccs3)nc3ccccc23)c1 3.19%
O=c1c2sccc2n(Cc2cc(=O)n3cc(Cl)ccc3n2)c(=O)n1-c1ccccc1 -10.4%
O=c1c(N2CCN(c3cccc(Cl)c3)CC2)csc2ccc(Cl)cc12 17.2%
CCC(C)NC(=O)c1cn(CC)c2ccc(S(=O)(=O)N3CCc4ccccc4C3)cc2c1=O (centres undefined) -25.1%
Cc1ccc(CCNC(=O)c2ccc3c(c2)N(Cc2ccc(F)cc2)CCS3)cc1 -16.5%
Cc1cc(C)c(NC(=O)Cn2c(=O)n(CC(=O)NCCc3ccccc3)c(=O)c3ccccc32)c(C)c1 -4.68%
O=C(NC1CCCCCC1)c1ccc(CS(=O)c2cccc(Cl)c2)o1 (centres undefined) -20.6%
CCCCc1ncc(/C=C(\Cc2cccs2)C(=O)O)n1Cc1ccc(C(=O)O)cc1 0%
Cc1cc(N2CCC(C)CC2)nc2ccc(NC(=O)CCC(=O)N3CCN(c4ccccc4F)CC3)cc12 -18.8%
Cc1cccc(-n2nnc(-c3nc(-c4cccs4)no3)c2N)c1 62.2%
Cc1ccc(C)c(CNC(=O)CN2C(=O)CSc3ccc(S(=O)(=O)N(C)C)cc32)c1 -12.9%
O=C1NC2CCCCN2C12CCN(CCCN1c3ccccc3CCc3ccc(Cl)cc31)CC2 (centres undefined) -15.3%
CCc1ccc(NC(=O)Cn2c(=O)n(CCc3ccccc3)c(=O)c3sc4ccccc4c32)cc1 -2.15%
CC(=O)c1cccc(N2C(=O)CN(S(C)(=O)=O)CC2(C)C(=O)NC2CCCC2)c1 (centres undefined) 12.9%
CCn1c(=O)c2cc(C(=O)NCCc3ccc(Cl)cc3)sc2c2ccccc21 6.22%
CCn1c(=O)c2sccc2n2c(CCC(=O)Nc3ccc(C(C)C)cc3)nnc12 -8.47%
Cc1ccc(N(C)C(=O)C2CCN(S(=O)(=O)c3cn(C)cn3)CC2)cc1 -13.9%
COc1ccc(OCC(=O)NC(Cc2c[nH]c3ccccc23)C(=O)O)cc1 (centres undefined) -6.42%
CC1(COc2ccc(CC3SC(=O)NC3=O)cc2)CCCCC1 (centres undefined) 17.4%
CCc1nnc(SC(CC)C(=O)Nc2cc(C)ccc2C)c2cc3occc3n12 (centres undefined) -5.39%
COc1cc(C2c3c(oc4ccccc4c3=O)C(=O)N2Cc2ccc(C)cc2)ccc1O (centres undefined) -9%
CC1CCN(CCCNC(=O)CN2C(=O)CSc3ccc(S(=O)(=O)N4CCOCC4)cc32)CC1 -8.76%
COc1ccc(NC(=O)c2cc3c(=O)n(Cc4cccnc4)ccc3nc2C)c(OC)c1 -1.77%
CN(C)CCc1c[nH]c2ccc(CS(=O)(=O)N3CCCC3)cc12
Cc1ccc2nc3c(cc(C(=O)NCc4ccco4)c(=N)n3C(C)C)c(=O)n2c1 -7.6%
O=C(Nc1ccc(N2CCOCC2)c(C(=O)O)c1)c1ccc(Br)cc1 -2.37%
Cc1cccc(CN2C(=O)c3ccccc3S(=O)(=O)c3ccc(C(=O)NC4CCCCC4)cc32)c1 -7.83%
Cc1cccc2c(=O)cc(CSc3ccccc3NC(=O)C(C)(C)C)[nH]c12 -1.34%
CCOC(=O)c1cc(S(=O)(=O)NCc2ccc(OC)cc2)[nH]n1 -25.4%
CCCC(=O)Nc1ccccc1C(=O)OCc1cc(=O)n2nc(C(C)C)sc2n1 -11.3%
CCC(=O)N1CCCc2cc(S(=O)(=O)N3CCC(C(=O)Nc4ccc(C#N)cc4)CC3)ccc21 -22.6%
CC(=O)c1cccc(NC(=O)Cn2cc(C(=O)c3cccc(Cl)c3)c(=O)c3ccc(C)nc32)c1 -23.4%
COc1ccc(OC)c(S(=O)(=O)N2CCN(Cc3nc4ccc(C)cc4o3)CC2)c1 -0.463%
Cc1cc(C)cc(NC(=O)N2CCN(C(=O)c3nsc4ccccc34)CC2)c1 -9.32%
COC(=O)c1ccc(-n2c(/C=C/c3cc(OC)c(OC)c(OC)c3)nc3cc(Cl)ccc3c2=O)cc1 -28.1%
Cc1ccc(CNC(=O)CCc2nc3cccnc3n2Cc2ccccc2)cc1 -13.7%
CC(=O)Nc1ccc(NC(=O)C(NS(=O)(=O)c2ccc(Br)s2)c2ccccc2)cc1 (centres undefined) -4.17%
COc1cc(NC(=O)Cn2nnnc2-c2ccccc2F)cc(OC)c1OC 1.98%
Cc1ccc(Cn2cc(S(=O)(=O)c3ccc(Cl)cc3)c(=O)c3cc4c(cc32)OCO4)cc1 -26.7%
O=C1CC(=O)Nc2cc(S(=O)(=O)Nc3ccc(F)cc3Cl)ccc2N1 -6.03%
CCOc1ccc2nc(N(Cc3cccnc3)C(C)=O)sc2c1 -2.46%
Cc1ccc(OCCSc2nc3ccc(NC(=O)c4ccco4)cc3s2)cc1 -10.7%
COc1ccc(-c2cc3ccc(O)c(CN4CCCCC4C)c3oc2=O)cc1OC (centres undefined) -4.01%
CC(=O)N1CCc2cc(S(=O)(=O)NC(Cc3ccccc3)C(=O)NCc3ccccc3Cl)ccc21 (centres undefined) -11.1%
CCCc1ccc(OC(C)c2nc(-c3ccc(-n4cccc4)cc3)no2)cc1 (centres undefined) -0.687%
CCOC(=O)C1CCN(C(=O)CSc2n[nH]c(-c3ccc(OC)cc3)n2)CC1 5.34%
Cn1c(=O)n(C)c2cc(N3CCOCC3)c(NS(=O)(=O)c3ccc(Cl)cc3)cc21 -9.84%
Cc1ccc(-n2c(=O)c3c(cnn3C)n(CC(=O)Nc3cccc(C)c3)c2=O)cc1 8.8%
Cc1cc(=O)n(Cc2c(F)cccc2Cl)c2c1c(C)nn2C 0%
CCOC(=O)Cn1c(CN2CCN(c3ccc(OC)cc3)CC2)nc2c1c(=O)[nH]c(=O)n2C -3.04%
COc1ccc(CCNC(=O)Cn2c(-c3ccc(F)cc3)cc(C(C)=O)c2C)cc1OC -23.5%
Cc1ccc(C)c(OC(=O)CSc2nnc(-c3cccs3)o2)c1 4.32%
COc1ccc2c(c1)CC(C(=O)NCCc1ccc(S(N)(=O)=O)cc1)CO2 (centres undefined) -12.7%
CCCC(=O)Nc1cc(-c2nnc3c4ccccc4c(C)nn23)ccc1C 13.4%
COc1ccc(-n2c(=O)c3c(c4cc(OC)ccc4n3C)n(CC(=O)N3CCCC3)c2=O)cc1 -3.76%
CCc1ccc(NC(=O)CCCc2nnc3n(CCCOC)c(=O)c4sccc4n23)cc1 -4.76%
Cc1ccc(NC(=O)C(C)Sc2nc3c(c(=O)[nH]2)CCCC3)cc1Cl (centres undefined) -7.08%
O=C(Cn1cnc2c(nc3n2CCCCC3)c1=O)Nc1cccc(C(F)(F)F)c1 -12.4%
CCOc1ccc(/C=C/c2nc(C#N)c(NCCCN(C)C)o2)cc1 4.82%
COC(=O)c1ccccc1NC(=O)Cn1c(=O)n(CCCC(=O)NCc2ccccc2Cl)c(=O)c2ccccc21 -12.6%
O=C(COc1ccccc1Cl)N(Cc1cccc(F)c1)C1CCS(=O)(=O)C1 (centres undefined) -8.79%
Cc1ccc(Cc2nc3ccccc3nc2SCC(=O)NCc2ccccc2Cl)cc1 -1.07%
CCOC(=O)c1c(NC(=O)COc2ccc(C(C)(C)C)cc2)sc2c1CCCC2 0%
CCc1cccc(CC)c1NC(=O)Cn1nnc2sc3c(c2c1=O)CCCC3 -16.4%
Cc1ccc(NC(=O)c2c(C)nn(-c3ccccc3)c2-n2cccc2)c(Cl)c1 -13.7%
COCCn1c(SCC(=O)c2ccc(F)cc2)nc2cc(C(=O)NC3CCCC3)ccc2c1=O -7.9%
O=C1CC(c2ccc(F)cc2F)c2cc3c(cc2N1)OCO3 (centres undefined) -21.8%
COc1ccc(OC)c(NC(=O)Cn2c(=O)n(-c3ccc(Cl)cc3)c(=O)c3c(C)c(C)sc32)c1 -15.4%
Cc1ccc2c(c1)N(C(=O)CCC(=O)NCc1cccs1)CC(C)O2 (centres undefined) -10%
COC(=O)c1ccccc1NC(=O)Cn1c(CCC(=O)O)ccc1-c1ccc(C)cc1 -5.75%
Cc1cccc(CC(=O)Nc2c(C(=O)Nc3cccc(F)c3)oc3ccccc23)c1 -9.95%
Cc1cc(NC(=O)CSc2ncc(C(=O)Nc3ccc(C)c(C)c3)c(=O)n2C)no1 -0.629%
CC1=C(C(=O)Nc2cccnc2)C(c2ccccc2Cl)n2nc(-c3ccccc3)nc2N1 (centres undefined) -6.48%
Cc1ccc(NC(=O)CCSc2nc(-c3ccc4c(c3)OCO4)cc(C(F)(F)F)n2)c(C)c1 4.32%
CCOc1ccccc1C(=O)NCc1ccc2c(c1)CCN2C(=O)c1ccccc1 -31.2%
Cc1cc(C)c2oc(-c3cccc(NC(=O)COc4ccccc4Cl)c3C)nc2c1 10.1%
CS(=O)(=O)c1ncc(Cl)c(C(=O)Nc2c(C(=O)c3ccc(Cl)cc3)oc3ccccc23)n1 -13.3%
COc1ccc(CCNC(=O)c2ccc(Cn3c(SCC(=O)NCCC(C)C)nc4cc5c(cc4c3=O)OCO5)cc2)cc1OC -13.5%
Cc1ccc2nc(CN3CCN(S(=O)(=O)c4ccc(C)c(C)c4)CC3)oc2c1 1.55%
O=C(Nc1ccc2oc(-c3ccc4ccccc4c3)nc2c1)c1cc(Cl)ccc1Cl -19.2%
CC(=O)c1c(C)n(-c2ccc(C)cc2)c2ccc(OC(=O)COc3ccccc3)cc12 -25.7%
Cc1ccc(C2CC(=O)n3nc(-c4cccc(C)c4)nc3S2)cc1 (centres undefined) 8.93%
CN(C)c1ccc(CNC(=O)C2CCN(S(=O)(=O)c3ccc4[nH]c(=O)ccc4c3)CC2)cc1 -2.74%
COc1cc(-c2ccno2)ccc1S(=O)(=O)N1CCN(c2ccccc2)CC1 -16.8%
CC(C)C(=O)Nc1nnc(SCc2cc(=O)n3ccccc3n2)s1 -3.75%
CCNc1sc(S(C)(=O)=O)nc1S(=O)(=O)c1ccc(C)cc1 -21.5%
CCCCc1nn2c(=O)cc(COC(=O)c3cccs3)nc2s1 19.2%
Cc1ccc(Cn2c(=O)n(Cc3ccccc3Cl)c(=O)c3cccnc32)cc1 -3.62%
Cn1c(=O)n(C)c2cc(N3CCCC3)c(NC(=O)Nc3ccccc3)cc21 10.7%
CCc1ccc(NC(=O)CCNC(=O)Cn2cnc3ccccc3c2=O)cc1 -6.79% [at 11.5 µM]
Cc1ccc(CNC(=O)c2cccc(Nc3nc4ccccc4n4nnnc34)c2)cc1 19.4%
COC(=O)c1ccccc1NC(=O)Cn1c(=O)n(CCCCC(=O)NCc2ccc3c(c2)OCO3)c(=O)c2ccccc21 -2.68%
COc1cc(OC)c(NC(=O)c2c(C)oc3ncnc(N4CCCCC4)c23)cc1Cl 11.3%
Cc1ccc(N2CCN(c3nc4ccccc4c4nnc(C)n34)CC2)c(C)c1 -0.868%
